Source: PubChem BioAssay AID1963576 (National Center for Advancing Translational Sciences (NCATS), 2024)
About 60 (0.1%) of roughly 46,000 compounds were called active. Not shown: some 3% with an inconclusive outcome. Calls come from the whole dose curve; as a rule, active = well fitted inhibition curve with a large enough effect; inconclusive = small, poorly fitted or top-dose-only effect; inactive = no such curve, though single readings can be large or run the other way. The list shows a part of the results.

Experiment: Primary qHTS assay for Inhibitors of ovarian cancer metastasis using an organotypic tumor microenvironment (TME) model.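 For activity change, negative = inhibition: plate controls were DMSO wells for no effect and tomatine positive control wells for full effect.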 Note: nearly all actives have a fitted effect of over 65% in size.
Conditions: SKOV3ip1-GFP adhesion/invasion on 3D omental model, fluorescence; series mostly up to 45.8 µM; activity change, negative = inhibition: at the top concentration
Summary of the method: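 Primary human omental fibroblast/mesothelial 3D culture pre-formed 48 h. SKOV3ip1-GFP cells added with compounds (0.36-46 umol/L), incubated 2 h RT/16 h 37 C, fixed; GFP cells quantified at 488/509 nm.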
With `Cc1ccc(Nc2nccc(N(C)c3ccc4c(C)n(C)nc4c3)n2)cc1S(N)(=O)=O` the “activity change, negative = inhibition” value was inactive: 34.6%.
For `COC(=O)c1ccc(NC(=O)CC2C(=O)N(c3cccc(OC)c3)C(=O)N2Cc2cccc(OC)c2)cc1` (configuration not stated), the “activity change, negative = inhibition” value was inactive: -5.26%.
For `CCOc1ccc(CN2C(=O)c3ccccc3Sc3ccc(C(=O)NCc4ccc(C)cc4)cc32)cc1`, the “activity change, negative = inhibition” value was inactive: -1.07%.
With `Cc1nc2nc(SCC(=O)NC(C)c3ccccc3)nn2c(C)c1Cc1c(F)cccc1Cl` (configuration not stated) the “activity change, negative = inhibition” value was inactive: -2.22%.
For `Cc1ccc(CCNC(=O)CCSCc2ccc(Cl)cc2)cc1`, the “activity change, negative = inhibition” value was inactive: -6.27%.
For `Cc1ccc(-c2nc3c4cnn(-c5cc(Cl)ccc5Cl)c4ncn3n2)cc1`, the “outcome” value was “inactive”.
In the case of `COCCCn1c(=N)c(C(=O)NC2CCCC2)cc2c(=O)n3ccccc3nc21`, the “activity change, negative = inhibition” value was inactive: 5.65%.
For `CC(=O)Nc1ccc(NC(=O)CN2C(=O)CN(C)C(=O)c3ccccc32)cc1`, the “activity change, negative = inhibition” value was inactive: 9.36%.
In the case of `CC(C)Cc1nn2c(=O)cc(COC(=O)c3ccccc3NC(=O)c3ccccc3)nc2s1`, the “activity change, negative = inhibition” value was inactive: -7.37%.
For `CCOc1ccc(-n2c(SCc3nc(-c4ccccc4C)no3)nnc2-c2ccccc2)cc1`, the “activity change, negative = inhibition” value was inactive: 2.31%.
For `Cc1ccc(S(=O)(=O)c2nnn3c2nc(Nc2ccc(C(C)C)cc2)c2sccc23)cc1C`, the “outcome” value was “inactive”.
With `CN(C)c1ccc(CNc2nc(-c3ccco3)nn2C(=O)c2cccc([N+](=O)[O-])c2)cc1` the “activity change, negative = inhibition” value was inactive: 0.644%.
For `CCCn1c(=O)c2sccc2n2c(CCCC(=O)NCCOC)nnc12`, the “activity change, negative = inhibition” value was inactive: -0.76%.
In the case of `CC(=O)N1CCCc2cc(S(=O)(=O)N3CCCC(C(=O)NCc4ccc(Cl)cc4)C3)ccc21` (configuration not stated), the “activity change, negative = inhibition” value was inactive: 11.4%.
For `Cc1cc(O)c(C(c2cccc(Cl)c2)N2CCN(c3ccccc3)CC2)c(=O)n1Cc1ccco1` (configuration not stated), the “activity change, negative = inhibition” value was inactive: 2.4%.
With `Cc1nc(N2CCCC2)ncc1C(=O)Nc1ccccc1` the “outcome” value was “inactive”.
For `CC(C)CC(=O)Nc1ccc(C(=O)OCc2cc(=O)n3nc(C4CCCCC4)sc3n2)cc1`, the “activity change, negative = inhibition” value was inactive: 12.6%.
With `COc1ccccc1NC(=O)CSc1ncc2c(n1)-c1cc(Cl)ccc1N(C)S2(=O)=O` the “activity change, negative = inhibition” value was inactive: 8.88%.
With `COc1cccc(CN2C(=O)c3ccccc3C2C(=O)NCCc2ccc(OC)c(OC)c2)c1` (configuration not stated) the “outcome” value was “inactive”.
With `CCc1ccc(-n2c(C)nc3cc(C(=O)NCCc4ccccc4)ccc32)cc1` the “activity change, negative = inhibition” value was inactive: 2.57%.
In the case of `CN(C)c1ccc(CN(CC2CCCO2)C(=O)COc2ccc(Cl)cc2)cc1` (configuration not stated), the “outcome” value was “inactive”.
With `COc1ccc(-n2c(=O)c3c4c(sc3n(Cc3cc(=O)n5c(C)cccc5n3)c2=O)CCC4)c(OC)c1` the “outcome” value was “inactive”.
With `Cc1ccc(NC(=O)c2ccco2)c(OCc2cc(=O)n3cc(C)sc3n2)c1` the “outcome” value was “inactive”.
With `CCC1CN(C(=O)NCc2ccc(F)cc2)c2ccccc2O1` (configuration not stated) the “activity change, negative = inhibition” value was inactive: 5.26%.
For `Cc1ccc(OCC(=O)Nc2ccc3nc(SCC(=O)N4CCCC4)sc3c2)cc1C`, the “outcome” value was “inactive”.
For `COc1ccc(C2CC(=O)N3CN(C4CCCCC4)CSC3=C2C#N)cc1` (configuration not stated), the “activity change, negative = inhibition” value was inactive: -5.08%.
For `Cc1ccc(Cn2c(=O)c3ccccc3n3c(-c4ccccc4)nnc23)cc1`, the “activity change, negative = inhibition” value was inactive: -4.45%.
In the case of `CCc1ccc(CNC(=O)CSCc2cnn(-c3ccccc3)c2-n2cccc2)cc1`, the “activity change, negative = inhibition” value was inactive: -9.01%.
For `Cc1ccc(Cl)cc1NC(=O)CCS(=O)(=O)c1ccc(Br)s1`, the “activity change, negative = inhibition” value was inactive: 0.188%.
In the case of `Cc1ccc(SCC(=O)Nc2ccc3oc(-c4cccc(C)c4)nc3c2)cc1`, the “outcome” value was “inactive”.
For `COc1ccc(CCNC(=O)C(=O)NCC(c2cccs2)S(=O)(=O)c2ccccc2)cc1` (configuration not stated), the “activity change, negative = inhibition” value was inactive: 0.314%.
For `COc1cccc(-c2nc(CS(=O)CC(=O)N3CCN(c4cccc(C(F)(F)F)c4)CC3)c(C)o2)c1` (configuration not stated), the “outcome” value was “inactive”.
For `O=C(Nc1ccc2c(c1)N(C1CCCC1)C(=O)c1ccccc1S2)c1ccccc1`, the “activity change, negative = inhibition” value was inactive: -9.53%.
With `COc1ccc(OC)c(CNS(=O)(=O)c2ccc(-c3cc(C(F)(F)F)on3)s2)c1` the “activity change, negative = inhibition” value was inactive: 14.6%.
In the case of `O=C(Cn1cc(SCc2ccccc2Cl)c2ccccc21)N1CCCCCC1`, the “outcome” value was “inactive”.
With `O=C(NCCC1=CCCCC1)c1ccc2c(c1)N(Cc1ccccc1)C(=O)c1ccccc1S2(=O)=O` the “outcome” value was “inactive”.
For `CCOC(=O)c1noc2ncn(CC(=O)O)c(=O)c12`, the “activity change, negative = inhibition” value was inactive: -0.604%.
With `CCN1C(=O)CC(C(=O)Nc2ccc(OC)cc2)SC1=Nc1ccc(C)c(C)c1` (configuration not stated) the “activity change, negative = inhibition” value was inactive: 8.15%.
With `O=C(NC1CCCC1)c1ccc2c(c1)N(Cc1ccc(F)cc1)C(=O)c1ccccc1S2` the “outcome” value was “inactive”.
For `CCOc1ccc(-c2ccc(CO)o2)cc1N`, the “activity change, negative = inhibition” value was inactive: 0.646%.
With `CCc1cccc(NC(=O)CCS(=O)(=O)c2ccc(C)cc2)c1` the “activity change, negative = inhibition” value was inactive: -8.44%.
For `CCc1ccc(C2c3c(n[nH]c3C)C(=O)N2c2ccc(C)cc2)cc1` (configuration not stated), the “outcome” value was “inactive”.
With `Cc1ccc(CNC(=O)CN(c2cc(C)cc(C)c2)S(=O)(=O)c2c(C)[nH]c(=O)[nH]c2=O)cc1` the “outcome” value was “inactive”.
For `Cc1ccc(N2CCN(C(=O)c3nn(C)c4c3CSc3ccccc3-4)CC2C)cc1` (configuration not stated), the “activity change, negative = inhibition” value was inactive: 5.87%.
With `O=S(=O)(Nc1nc2n(n1)C(c1ccccc1)C=C(c1ccc(Cl)cc1)N2)c1ccccc1` (configuration not stated) the “activity change, negative = inhibition” value was inactive: -34.3%.
For `COc1ccc(-c2noc(-c3ccccc3NC(=O)c3cc(OC)c(OC)c(OC)c3)n2)cc1`, the “activity change, negative = inhibition” value was inactive: -8.97%.
For `CC(C)CCNC(=O)CSc1nc2ccsc2c(=O)n1Cc1ccccc1Cl`, the “outcome” value was “inactive”.
